Assay results as given in the antibiotic and cytotoxicity screens of Wong et al. (2023).
Some of the results follow.

What follows are molecules tested on S. aureus RN4220 (assay: growth inhibition call (relative growth <= 0.2)). Settings: 50 µM.

Growth inhibition call, inactive:
C[C@@H]1CN([C@H](C)CO)C(=O)c2cc(NC(=O)Cc3cn(C)c4ccccc34)ccc2O[C@H]1CN(C)Cc1ccc(Oc2ccccc2)cc1
COc1ccc(NC(=O)N(C)C[C@@H]2OCCCC[C@H](C)Oc3ccc(NS(=O)(=O)c4ccc(F)cc4)cc3C(=O)N([C@@H](C)CO)C[C@@H]2C)cc1
Cc1n[nH]c(=O)nc1NCCCOC(C)C
C[C@@H]1CCCCO[C@@H](CN(C)Cc2ccc(Cl)c(Cl)c2)[C@H](C)CN([C@@H](C)CO)C(=O)c2cc(NC(=O)Nc3cccc4ccccc34)ccc2O1
Cc1csc(-c2nnc(Nc3ccc(Oc4ncccc4-c4ccnc(N)n4)cc3)c3ccccc23)c1
C[C@H](CO)N1C[C@H](C)[C@H](CN(C)Cc2ccc(-c3ccccc3)cc2)Oc2ccc(NC(=O)Nc3ccccc3)cc2CC1=O
CCOC(=O)CC1=NNC(=N)SC1
N=C(NCCC[C@H](N)C(=O)O)N[C@@H](CCC(=O)O)C(=O)O
C[C@@H]1CN([C@@H](C)CO)C(=O)c2cccc(NC(=O)NC3CCCCC3)c2O[C@@H]1CN(C)S(=O)(=O)c1cn(C)cn1
O=C(NC1CCCCC1)N1c2ccccc2C=Cc2ccccc21
